# Assay results reported in the supplement of paper PMC3334620.
# In all, about 33,000 sequences were measured (“E-score (-0.5 to 0.5)”: median about -0.013, highest 2% from about 0.3 on). This is one part of the list.
# Molecular target: T1, Msn1 (UniProt P22148)
# T1 sequence: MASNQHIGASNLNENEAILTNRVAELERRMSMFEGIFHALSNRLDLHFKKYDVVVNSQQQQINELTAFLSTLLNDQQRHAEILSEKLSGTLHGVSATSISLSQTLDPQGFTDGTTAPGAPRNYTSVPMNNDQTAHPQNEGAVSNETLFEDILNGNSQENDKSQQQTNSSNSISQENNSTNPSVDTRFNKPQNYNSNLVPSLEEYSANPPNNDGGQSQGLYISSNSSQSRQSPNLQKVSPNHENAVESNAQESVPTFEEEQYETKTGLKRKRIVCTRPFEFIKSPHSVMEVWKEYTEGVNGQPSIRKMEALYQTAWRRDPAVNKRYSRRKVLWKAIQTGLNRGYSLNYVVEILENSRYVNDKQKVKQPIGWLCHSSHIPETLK
# Assay: PBM E-score (8-mer binding enrichment) (E-score (-0.5 to 0.5)); higher = stronger / more preferred TF binding; most listed sequences are background and not binding sites
# Details: protein concentration: 200 nM; construct: GST-full length
# Protocol: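 Universal 'all 10-mer' protein binding microarrays (Agilent AMADID 015681) probed with GST-tagged S. cerevisiae TFs (full-length or DBD) made by in vitro transcription/translation (PURExpress), about 100-200 nM. Bound TF was detected with fluorescent anti-GST. Each ungapped 8-mer (which stands for itself and its reverse complement) is scored by the PBM enrichment score (E-score), a modified Wilcoxon-Mann-Whitney statistic from -0.5 to +0.5, computed with the Universal PBM Analysis Suite. Scale: above 0.35 generally sequence-specific binding.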
row,Sequence,PBM E-score
1,ACGCTGAC,0.0717
2,CTTACGCC,-0.0895
3,TACATCGA,0.21
4,ATCGGGTA,-0.205
5,AGGAATCC,-0.197
6,CCAGTTCG,-0.0865
7,ACGCGTTG,-0.0259
8,CAGTGACG,0.052
9,GCTGTTAA,0.0198
10,CCGTCCTA,-0.0332
11,ACAGCTAT,-0.114
12,CATCGACC,-0.0813
13,ACGGCACT,0.0409
14,AAAACTCA,0.0995
15,GAATGATA,0.254
16,CGTGTGAG,-0.158
17,TATGAAGA,0.115
18,GCATTTTA,0.109
19,AAGCAATT,0.0745
20,AGATGTGA,-0.0694
21,CGGCAAAA,0.0391
22,CACGAGGC,0.00259

row,Sequence,PBM E-score
1,GGGGTCCA,-0.307
2,CAAGGTAG,-0.16
3,ACGAGGCA,-0.055
4,CGGTCGTA,-0.097
5,GCAAAAGC,0.00797
6,GCCATCGA,-0.0255
7,CAGGAGGC,-0.187
8,AACTAAAC,0.0858
9,CGCCGGAG,0.0312
10,CTTCGGTC,0.179
11,ATCTAAAT,0.116
12,CTTTCGCA,0.0391
13,CAATTACC,-0.00784
14,ATTCTCGA,0.176
15,GCTTAGTA,-0.0133
16,ATCGTGAC,0.22
17,AGTGAACG,0.0171
18,CCATAGTA,0.13
19,CTGCTACC,-0.0604
20,ACGCTACC,-0.266
21,AAATACGA,0.0698
22,ACTCCTTG,0.00153

row,Sequence,PBM E-score
1,AGCGATTC,-0.0453
2,ATTTTATC,0.202
3,AGAGGCCC,-0.282
4,GCCAACCC,-0.134
5,GAGGTTAA,-0.0768
6,GGTTTAGA,0.0228
7,AAGATCCG,-0.0183
8,ACTGTGCC,-0.0718
9,CTAACGAC,-0.0504
10,GGACAACC,0.303
11,CGAGGCCC,-0.158
12,CCCTGAGA,-0.245
13,CCAACGTA,0.036
14,ATCCATGC,-0.133
15,TGAAACAA,0.119
16,TACGCAGA,0.137
17,AACCTCCG,-0.0619
18,TAGTATAA,0.0795
19,GCGTCCCA,0.0223
20,AAAGCCCT,-0.255
21,CGTAAGAC,0.0666
22,ATCTGGGG,-0.131

row,Sequence,PBM E-score
1,GTGTACCA,0.189
2,CCAGGACC,-0.105
3,CTCGCGTA,-0.107
4,GATGTGGC,-0.135
5,GAGCGGAC,-0.0401
6,TATATCGA,0.119
7,ATTCACTA,0.154
8,CAACGTGG,0.0759
9,CCAACCCC,-0.16
10,ACCATTAC,-0.0301
11,TGCACCCA,-0.165
12,GACTTCTC,0.124
13,CATTGTCA,0.158
14,CGAAAGCA,0.00321
15,AGGTAGAC,-0.101
16,ATAGGGTC,-0.215
17,ATGAGTTA,-0.181
18,AGCTGCAT,-0.208
19,CACCTACG,-0.101
20,ATACTAGA,0.125
